According to the BET-seq Pho4 binding data (Le et al. 2018):
The other results are listed elsewhere or left out. The energies were worked out here from pooled read counts, against the library average; single values are noisy.

Molecular target: T1, Pho4 (S. cerevisiae) (UniProt P07270)
T1 sequence: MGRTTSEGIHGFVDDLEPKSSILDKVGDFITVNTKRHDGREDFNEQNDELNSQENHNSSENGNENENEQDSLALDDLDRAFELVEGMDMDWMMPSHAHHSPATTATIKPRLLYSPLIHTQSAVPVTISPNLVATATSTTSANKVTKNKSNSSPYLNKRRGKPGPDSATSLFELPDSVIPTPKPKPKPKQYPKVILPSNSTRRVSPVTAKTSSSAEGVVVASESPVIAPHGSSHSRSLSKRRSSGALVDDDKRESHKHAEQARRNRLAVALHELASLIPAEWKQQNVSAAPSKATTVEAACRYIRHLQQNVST
Assay: relative binding free energy (BET-seq); higher = weaker binding
Settings: reference: library average

Sequence | relative binding free energy
TGTTGCACGTGTGGGA | 0.16 kcal/mol
GGGTTCACGTGGAAGA | 0.47 kcal/mol
GGTATCACGTGTACAT | 0.28 kcal/mol
ATCGTCACGTGCGGGA | 0.09 kcal/mol
AAGGTCACGTGGGTCA | 0.05 kcal/mol
CTTAACACGTGGTAGT | -0.18 kcal/mol
TGTGACACGTGGTGAA | 0.01 kcal/mol
AATTTCACGTGGTCTG | 0.26 kcal/mol
CGGGTCACGTGGTTGC | 0.14 kcal/mol
TGGTTCACGTGACGGT | 0.23 kcal/mol
TTACTCACGTGAAAGT | 0.36 kcal/mol
TGGTGCACGTGTGACA | 0.12 kcal/mol
AATTTCACGTGGACAG | 0.24 kcal/mol
GGAGTCACGTGTTATG | 0.1 kcal/mol
TTTGGCACGTGAAAGT | 0.04 kcal/mol
ATAAGCACGTGATTGT | -0.06 kcal/mol
ATAGGCACGTGGTTAC | -0.1 kcal/mol
AGCATCACGTGTTTGG | 0.16 kcal/mol
ATAGTCACGTGCGGGG | -0.01 kcal/mol
GTGGGCACGTGTAATT | 0.02 kcal/mol
GTTTTCACGTGTAAGT | 0.32 kcal/mol

Sequence | relative binding free energy
TTTCGCACGTGTTAGT | 0 kcal/mol
AATTTCACGTGTAGTA | 0.23 kcal/mol
ATATCCACGTGAGTGT | 0.21 kcal/mol
GGATACACGTGAAAGG | 0.26 kcal/mol
TCTGGCACGTGTTTGA | -0.06 kcal/mol
GGCGGCACGTGATGGT | 0.16 kcal/mol
GAAAACACGTGTAGGG | 0.09 kcal/mol
GCGTTCACGTGTATGA | 0.39 kcal/mol
TAGGACACGTGTGAAT | 0.26 kcal/mol
AGTCTCACGTGGGAGA | 0.06 kcal/mol
GATTGCACGTGTTTGG | 0.2 kcal/mol
CTGGACACGTGAGTTG | 0.27 kcal/mol
CTTTACACGTGTGGAT | 0.21 kcal/mol
AGGAGCACGTGATTGA | 0.02 kcal/mol
ATTACCACGTGTAGTG | 0.02 kcal/mol
ATGTGCACGTGAGATT | 0.21 kcal/mol
AGTTACACGTGCTGGG | 0 kcal/mol
ATTTGCACGTGCCGTG | -0.04 kcal/mol
GGAAGCACGTGGAGGG | -0.11 kcal/mol
GTATCCACGTGGGGCT | -0.06 kcal/mol
TGATACACGTGGCTTG | -0.1 kcal/mol

Sequence | relative binding free energy
CAGTGCACGTGATGAG | 0.11 kcal/mol
GGGACCACGTGGTGGT | -0.15 kcal/mol
GGGATCACGTGGGAAT | 0.22 kcal/mol
TTATGCACGTGAAGAG | 0.31 kcal/mol
AGGTGCACGTGGGGGC | -0.21 kcal/mol
TGCATCACGTGGGGTT | -0.01 kcal/mol
GTTTTCACGTGTTAAG | 0.32 kcal/mol
ATATTCACGTGCAAGG | 0.22 kcal/mol
GTTTACACGTGAAGTG | 0.32 kcal/mol
TTGGACACGTGGTACG | -0.2 kcal/mol
ATTAACACGTGTCGGT | 0.03 kcal/mol
TGGGACACGTGCGTTG | -0.04 kcal/mol
TTAGTCACGTGAGAGT | 0.32 kcal/mol
TGATGCACGTGGGAAT | -0.08 kcal/mol
AATTTCACGTGTAGGC | 0.14 kcal/mol
TTGGCCACGTGGTCAG | -0.08 kcal/mol
TTGGCCACGTGTGGAG | 0.1 kcal/mol
ATCGTCACGTGGGGCG | 0 kcal/mol
TGCGTCACGTGGTCAG | -0.1 kcal/mol
TGGCTCACGTGTATGC | 0.28 kcal/mol
TGGAGCACGTGCTTTG | -0.14 kcal/mol
